Test results published in publication PMC4336329 (PLoS ONE, 2015).
Hit rate of the full screen: of about 310,000 compounds, about 2,200 (0.71%) showed an effect of 50% or more. Effects have a minus sign here. Some of the results follow.

Each molecule was assayed against human ether-à-go-go-related gene (hERG) potassium channel (human, UniProt Q12809) (assay: primary screen, population patch clamp on CHO cells stably expressing hERG).
Chain of human ether-à-go-go-related gene (hERG) potassium channel (Q12809 whole entry, looked up): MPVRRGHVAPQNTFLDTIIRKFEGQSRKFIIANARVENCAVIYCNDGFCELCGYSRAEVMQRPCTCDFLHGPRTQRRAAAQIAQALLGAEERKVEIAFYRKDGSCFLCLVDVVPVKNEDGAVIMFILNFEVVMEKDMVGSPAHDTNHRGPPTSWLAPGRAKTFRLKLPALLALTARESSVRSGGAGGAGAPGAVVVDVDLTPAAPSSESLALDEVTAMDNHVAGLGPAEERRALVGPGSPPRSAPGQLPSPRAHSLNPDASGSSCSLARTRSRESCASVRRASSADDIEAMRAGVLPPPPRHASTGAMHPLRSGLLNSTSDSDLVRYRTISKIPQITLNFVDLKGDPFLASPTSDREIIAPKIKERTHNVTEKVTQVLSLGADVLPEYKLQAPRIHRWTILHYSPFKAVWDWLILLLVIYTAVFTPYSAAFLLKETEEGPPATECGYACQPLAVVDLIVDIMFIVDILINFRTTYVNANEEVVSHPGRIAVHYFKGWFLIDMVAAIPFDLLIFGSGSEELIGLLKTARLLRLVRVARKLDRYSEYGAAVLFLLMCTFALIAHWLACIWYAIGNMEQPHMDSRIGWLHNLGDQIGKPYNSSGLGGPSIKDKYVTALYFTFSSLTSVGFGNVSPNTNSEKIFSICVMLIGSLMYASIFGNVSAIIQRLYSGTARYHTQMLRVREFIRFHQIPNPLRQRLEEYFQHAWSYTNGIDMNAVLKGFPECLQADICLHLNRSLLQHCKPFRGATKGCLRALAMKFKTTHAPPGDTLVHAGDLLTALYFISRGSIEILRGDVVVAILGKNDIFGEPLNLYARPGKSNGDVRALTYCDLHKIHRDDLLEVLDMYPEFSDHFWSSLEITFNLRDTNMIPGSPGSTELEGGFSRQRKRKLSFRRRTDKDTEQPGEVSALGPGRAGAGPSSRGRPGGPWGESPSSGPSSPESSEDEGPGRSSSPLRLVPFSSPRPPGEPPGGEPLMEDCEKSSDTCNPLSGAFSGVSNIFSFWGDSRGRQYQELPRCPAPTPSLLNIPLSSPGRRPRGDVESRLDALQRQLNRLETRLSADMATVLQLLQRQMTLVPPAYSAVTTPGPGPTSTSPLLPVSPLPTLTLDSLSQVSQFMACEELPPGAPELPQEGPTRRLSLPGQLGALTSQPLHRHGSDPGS

SMILES	hERG current change (%, negative = inhibition) at 1uM [%]
CC(=O)N(CCC(Cc1ccccc1)c1ccc2c(c1)OCO2)Cc1ccccc1F (centres unmarked)	12.8
Cc1ccc(C2(COC(=O)C(C)C)CO2)c(OC(=O)C(C)C)c1 (centres unmarked)	5.64
CCn1cc(CNC(=S)Nc2cccc3ccccc23)cn1	9.87
CC(C)c1ccccc1NC(=O)Cn1c(/C=C/c2ccccc2)nc2ccccc21	20.2
O=C(NC1CCCC1)c1csc2c1CCCC2	3.44
Cc1ccc(-c2cc(C(=O)O)n[nH]2)s1	10.6
Cc1cc(OCCOCCN(C)C)ccc1Cl.O=C(O)C(=O)O	19.4
Cc1ccc(-n2cc(C(=O)c3ccc4ccccc4c3O)cn2)cc1	8.89
O=C(CC1C(=O)CCCC1=O)c1ccccc1	1.75
COc1cccc2c1OCC(C(=O)Nc1nccs1)=C2	1.63
O=C(NCCc1ccc(Cl)cc1)C1CCC(CNc2nc(=S)[nH]c3ccccc23)CC1 (centres unmarked)	-1.29
CC(C)(C)NC(=O)c1ccccc1NC(=O)C1CC(=O)N(C2CCCCC2)C1 (centres unmarked)	5.02
O=[N+]([O-])c1ccc(CN2CCN(c3nc4ccccc4s3)CC2)cc1	11.8
N/C(Cc1cccc2ccccc12)=N\OC(=O)c1ccc2c(c1)OCO2	7.26
O=C(c1ccco1)N1CCN(CCCCN2C(=O)c3ccccc3C2=O)CC1	-18.8
COc1ccc(-n2nc(C(=O)NCC(=O)N3CC(C)CC(C)C3)c3ccccc3c2=O)cc1 (centres unmarked)	16
C/C(=N\Nc1nc2ccccc2[nH]1)c1ccc([N+](=O)[O-])cc1	14.9
CCOC(=O)N1CCN(C(=O)CS(=O)(=O)c2cn(Cc3ccc(Cl)cc3)c3ccccc23)CC1	8.44
COc1cc(C(=O)NCC2CCCO2)ccc1OCc1ccc(Cl)cc1 (centres unmarked)	8.94
Cc1sc2nc(C(C)(C)C)oc(=O)c2c1C	3.6
Cc1cc(-n2c(C)cc(C(=O)CN3C(=O)NC4(CCCCCC4)C3=O)c2C)no1	5.71
Cc1cccc2c1cnn2C(=O)Nc1cc(F)ccc1F	14.5
CCOC(=O)NCN1C(=O)C2C3C=CC(C3)C2C1=O (centres unmarked)	7.02

SMILES	hERG current change (%, negative = inhibition) at 1uM [%]
CCCNC(=O)CS(=O)Cc1nc(-c2ccccc2C)oc1C (centres unmarked)	8.51
Cc1ccc(S(=O)(=O)CCC(=O)OCc2ccccc2)cc1	13.3
Cc1nn(C(C)C(=O)NCCc2ccco2)c(=O)c2nn(-c3ccccc3)c(C)c12 (centres unmarked)	10.2
CCc1ccc(OCC(O)CN2CCCC2)cc1.Cl (centres unmarked)	3.86
O=C(OCC(=O)N1CCCC1)c1cccs1	11.7
Cc1ccccc1NC(=O)CCN1CCc2ccccc2C1	6.54
O=C(CN1C(=O)c2cccc3cccc1c23)NCc1ccc2c(c1)OCO2	-8.16
CCc1nc(C(N)=O)c2[nH]c(=O)n(-c3ccc(OC)cc3OC)c2n1	16.3
Cc1ccc(C(C[N+](=O)[O-])c2c(C)[nH]n(-c3ccccc3)c2=O)cc1 (centres unmarked)	2.55
O=C(Nc1ccc(-c2cnco2)cc1)c1ccccc1	11.3
O=C(Nc1ccc(Oc2ccc(NC(=O)C3CCCO3)cc2)cc1)C1CCCO1 (centres unmarked)	18.2
CC(C)(C)OC(=O)NN1CC(=O)N2Cc3[nH]c4ccccc4c3C[C@H]2C1=O	-0.719
CCS(=O)(=O)n1nc(-c2ccc(Cl)cc2)nc1SCc1ccccc1	5.88
CCC(=O)N1c2ccc(S(=O)(=O)N3CCCCC3)cc2CC1C (centres unmarked)	17.7
O=C(O)C(CO)N=Cc1c(O)c2ccccc2oc1=O (centres unmarked)	1.59
COc1ccc(Cc2nc(N)nc(N)n2)cc1	11
CC(=O)c1ccc(N2CCN(S(=O)(=O)c3c(C(=O)N4CCCCC4)c(C)n(C)c3C)CC2)cc1	6.66
COc1ccc2oc(C(=O)OCC(=O)NCc3ccccc3OC)c(C)c2c1	15.4
COc1cc(CNCc2cccs2)ccc1OCC(=O)NC(C)(C)C.Cl	2.38
O=P(c1ccccc1)(c1ccccc1)C(c1ccccn1)P(=O)(c1ccccc1)c1ccccc1	8.21
CCc1ccccc1N1C(=O)CN(Cc2cc(OC)c(OC)c(OC)c2)C1=S	10.3
Cn1c(SCC(=O)NC(=O)CN2CCCC2=O)nnc1-c1ccc(F)cc1	6.51
CC(C)NC(=O)CSc1nnc(-c2ccco2)n1N	10.6

SMILES	hERG current change (%, negative = inhibition) at 1uM [%]
CC(=O)N/C(=C/c1ccc2c(c1)OCO2)C(=O)N1CCOCC1	14.3
CCOc1cccc(/C=N/NC(=O)C2CCCC2)c1O	12.3
O=S(=O)(c1ccc(Oc2ccc(S(=O)(=O)N(CCO)CCO)cc2)cc1)N(CCO)CCO	10.5
CC1(c2ccc(Cl)cc2)NC(=O)N(CC(=O)NCCC2=CCCCC2)C1=O (centres unmarked)	0.207
C/C(=N\NC(=O)COc1cccc2ccccc12)c1cccs1	4.19
COCCN(CC(=O)NCC1CCCO1)C(=O)CCC(=O)Nc1cc(C)on1 (centres unmarked)	11.7
CC(Cc1ccccc1)NC(=O)C1(c2ccccc2)CCOCC1 (centres unmarked)	2.19
Cc1ccnn1Cc1cc(C(=O)O)c2ccccc2n1	21.9
COC(=O)c1c(NC(=O)CC2Sc3ccc(C(F)(F)F)cc3NC2=O)sc(C)c1C (centres unmarked)	0.367
Cn1c(=O)c2c(ncn2CC(=O)N2CCN(c3ccccc3F)CC2)n(C)c1=O	2.35
Cc1cc(-n2c(SCC(=O)NCc3cccs3)nc3n[nH]c(C)c3c2=N)ccc1Cl	8.41
O=C(Nc1ccc(N2CCN(C(=O)c3cccs3)CC2)cc1)c1ccc(Br)o1	-52.7
CSc1cccc(NC(=S)Nc2cc(C)ccc2C)c1	4.88
COc1ccc(N2C(=NC(=O)C3CC3)SC3CS(=O)(=O)CC32)cc1Cl (centres unmarked)	7.85
Cc1ccccc1-n1c(O)c(C=Nc2ccc(N(C)C)cc2)c(=O)[nH]c1=O	-10.6
CC(C)NC(=O)NS(=O)(=O)c1cnccc1NC1CC2CCC1C2 (centres unmarked)	9.06
CNC(=O)/C(C#N)=C/c1ccc(-c2nc3ccccc3s2)o1	11.2
Cc1nc2ccc(NC(=O)Cc3ccc4c(c3)OCCO4)cc2s1	17.4
O=C(COc1ccccc1O)c1cccs1	7.31
Cc1ccc(NC(=O)CSCC(=O)Nc2ccc(S(=O)(=O)N3CCOCC3)cc2)cc1	11.4
COCCN(CC(=O)NC1CCCCC1)C(=O)c1csnn1	8.94
COc1ccc(C(=O)N/C(=C/c2ccco2)C(=O)NCc2ccco2)cc1	-0.769
CN(C(=O)c1ccc(NC(=O)Cc2cccc(NC(=O)C3CCN(C(=O)C4CCCCC4)CC3)c2)cc1)C1CCCC1	11.3

SMILES	hERG current change (%, negative = inhibition) at 1uM [%]
COc1cc(Br)c(S(=O)(=O)Nc2c(C)n(C)n(-c3ccccc3)c2=O)cc1OC	11.1
O=C(Cn1nc(-c2ccccc2)ccc1=O)N1CCC2(CC1)OCCO2	6.55
Cn1c(=O)c2c(O)cc(=O)n(-c3ccccc3)c2n(C)c1=O	8.25
CCOc1ccc(C(=O)NCC(=O)N2CCCCCCC2)cc1OCC	10.3
O=C(Nc1nc2ccccc2s1)c1ccc([N+](=O)[O-])o1	16.3
Cc1c(NC(=O)CC(=O)Nc2c(C)n(C)n(-c3ccccc3)c2=O)c(=O)n(-c2ccccc2)n1C	8.7
CCCCN(CC)S(=O)(=O)c1ccc2c(c1)n(C)c(=O)c(=O)n2C	-13.2
O=C(Oc1ccccc1N1C(=O)C2CC=CCC2C1=O)c1ccc(Br)cc1 (centres unmarked)	4.86
CCOC(=O)Cn1nnnc1C(CC)N(Cc1cccs1)Cc1cc2cc(C)ccc2[nH]c1=O (centres unmarked)	2.11
COc1cc2[nH]c(=S)n(NC(=O)c3ccccc3)c(=O)c2cc1OC	1.63
Cc1[nH][nH]c(=O)c1C(c1ccc(Cl)cc1)c1c(C)[nH][nH]c1=O	12.5
CCC(C)NC(=O)Cn1c(-c2ccccc2)cc(C(C)=O)c1C (centres unmarked)	5.71
COc1ccc(CC(=O)OCC(=O)NCc2ccccc2Cl)cc1OC	8.74
Cc1cc(-c2ccc(C(C)C)c(S(=O)(=O)N3CCN(c4ccccc4)CC3)c2)on1	-1.54
O=C(c1ccc(S(=O)(=O)Nc2cccc(C(F)(F)F)c2)cc1)N1CCC1	13.8
CCCC(=O)Nc1cc(-c2nc3ncccc3o2)ccc1Cl	12
O=C(c1cnc(-c2ccc(Cl)cc2)s1)c1ccc(Cl)cc1Cl	14.1
CCOCCOC(=O)CCSc1n[nH]c(=O)[nH]c1=O	1.89
Cc1ccc(C(=O)Nc2ccccn2)cc1S(=O)(=O)N1CCOCC1	2.03
Cc1ccc2c(C)nc(N/C(N)=N/S(=O)(=O)c3ccccc3)nc2c1	9.49
